Out of some 48,000 compounds screened, about 450 (0.94%) were called active. Another 19% or so got no clear call; they are omitted. The call rests on the fitted dose curve; in most records, active means well fitted inhibition curve with a large enough effect; inconclusive means small, poorly fitted or top-dose-only effect; inactive means no such curve, though single readings can be large or run the other way. This is one part of the list.
assay: Primary qHTS for Identification of Small Molecule Inhibitors of Huntingtin Promoter Activity; conditions: HEK293 HTT promoter firefly luciferase reporter (activity 0% = vehicle and -100% = no light), 24 h; series mostly up to 57.5 µM; activity change, negative = inhibition: at the top concentration; further: nearly all actives have a fitted effect of over 50% in size
In short: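 Firefly luciferase signal from promoter-reporter HEK293 cells was scaled between vehicle (0%) and zero RLU (-100%). Compounds were tested at final concentrations of up to 57.5 uM over 24 h at 37 degrees C. PTC124 at 50 uM final served as control inhibitor.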
Potency means the concentration at half of the fitted maximal effect.

| SMILES | activity change, negative = inhibition | Potency |
| --- | --- | --- |
| CCOc1ccc(NC(=O)Cn2cc(S(=O)(=O)c3ccc(C)cc3)c(=O)c3cc(F)ccc32)cc1 | inactive: -21% | – |
| COc1ccc(S(=O)(=O)N2CCC(C(=O)NC(C)c3ccccc3)CC2)cc1 (stereo unspecified) | inactive: -19.6% | – |
| Cc1ccc(CN2C(=O)C(O)(CC(=O)c3ccc(C)cc3)c3ccccc32)cc1 (stereo unspecified) | inactive: -19.8% | – |
| O=C(Nc1ccc(Br)cc1)c1cc2nc(-c3ccccc3)cc(-c3ccccc3)n2n1 | inactive: -2.04% | – |
| COc1ccc2[nH]cc(CCN=C(NC(=O)c3cccc(Cl)c3)Nc3nc(C)cc(C)n3)c2c1 | inactive: -29.2% | – |
| Cc1nc2sccn2c(=O)c1S(=O)(=O)Nc1ccc(N2CCN(C)CC2)cc1 | inactive: -15.6% | – |
| COc1cc2c(cc1OC)-c1cc(=Nc3c(C)cc(C)cc3C)n(C)c(=O)n1CC2 | inactive: 4.11% | – |
| COc1cc(OC)c(NC(=O)NCCn2nnc3cc(S(=O)(=O)N(C)C)ccc32)cc1Cl | inactive: -10.1% | – |
| COc1ccc(-c2nn3c(=O)cc(CN4CCN(C(=O)Nc5cc(C)ccc5C)CC4)nc3s2)cc1 | inactive: -18.4% | – |
| CCCCNc1ccc(C(=O)OCCN(CC)CC)cc1 | inactive: -1.87% | – |
| Cc1cccc(N2CCN(C(=O)c3sc4nc5n(c(=O)c4c3C)CCC5)CC2C)c1 (stereo unspecified) | inactive: -12.8% | – |
| CCCCSCCCNC(=O)C1CCN(Cc2nc(-c3ccc(CC)cc3)oc2C)CC1 | inactive: -7.25% | – |
| CCOC(=O)c1c(C)[nH]c(C)c1S(=O)(=O)N1CCC(C(=O)NCc2ccc(F)cc2)CC1 | inactive: -22.2% | – |
| COc1ccc(-c2c(C#N)c(SCC(=O)Nc3ccc(C)c(C)c3)nc(C)c2C(=O)Nc2ccc(Cl)cc2)cc1 | inactive: -27.4% | – |
| O=c1[nH]c(SCc2ccccc2)nc2c1CCCC2 | inactive: -10.4% | – |
| CC(C)(C)C1CCc2nc(NC(=O)c3cccc(Cl)c3)sc2C1 (stereo unspecified) | – | active: 355 nM |
| COC(=O)c1ccc(OCC2c3cc(OC)c(OC)cc3CCN2C(=O)c2ccc(OC)cc2)cc1 (stereo unspecified) | inactive: -26.9% | – |
| COc1cc(OC)c(NC(=O)Cc2c(C(=O)O)c(C)cn2C)cc1Cl | inactive: -19.4% | – |
| COc1ccc(NC(=O)C2=C(C)Nc3ncnn3C2c2sccc2C)cc1 (stereo unspecified) | inactive: -11.2% | – |
| CC(=O)N1CCCC1c1nc2ccccc2n1Cc1c(F)cccc1Cl (stereo unspecified) | inactive: -10.8% | – |
| CCc1ccc(OCC(=O)Nc2ccc(S(=O)(=O)Nc3onc(C)c3C)cc2)cc1 | inactive: 14.2% | – |

| SMILES | activity change, negative = inhibition | Potency |
| --- | --- | --- |
| Cc1ccc2oc(=O)n(CCNC(=O)Nc3ccccc3C)c2c1 | inactive: -7.47% | – |
| Cc1ccc(CNC(=O)Cc2c(C(=O)O)c(C)cn2C)cc1 | inactive: -4.57% | – |
| CCCCn1c(=O)c2oc3ccccc3c2n(CC(=O)Nc2cc(C)ccc2C)c1=O | inactive: -12.9% | – |
| Cc1ccccc1NC(=O)Nc1csc2c1CCCC2 | inactive: 6.72% | – |
| COc1ccc(C(=O)CSc2nc3cc(C(=O)NC4CCCC4)ccc3c(=O)n2CC2CCCO2)cc1 (stereo unspecified) | inactive: -7.6% | – |
| CCOc1ccc(CN2C(=O)c3ccccc3Sc3ccc(C(=O)NCc4ccc5c(c4)OCO5)cc32)cc1 | inactive: -24.1% | – |
| COc1ccc(C)cc1NC(=O)C(NS(=O)(=O)c1cccs1)c1ccccc1 (stereo unspecified) | inactive: -25% | – |
| Cc1cccc(C(=O)N2CCNC(=O)C2CC(=O)Nc2ccc(F)cc2)c1 (stereo unspecified) | inactive: -8.13% | – |
| Cc1cccc(NC(=O)Cn2c(=O)n(CCc3ccccc3)c(=O)c3ccccc32)c1 | inactive: -2.4% | – |
| COc1ccc(C2C(C(=O)Nc3ccccc3)=C(C)Nc3nc(-c4ccccc4)nn32)c(OC)c1 (stereo unspecified) | inactive: -17.7% | – |
| CCCOc1cccc(C(=O)Nc2cc(-c3nc4ccccc4[nH]3)ccc2C)c1 | inactive: -23.5% | – |
| COc1cc(OC)c(NC(=O)c2sc3nc4n(c(=O)c3c2C)CCCC4)cc1Cl | inactive: 9.24% | – |
| CCOc1cc(Cn2c(-c3ccc(O)c(OCC)c3)nc3ccccc32)ccc1O | inactive: -8.31% | – |
| Cc1cc(C)cc(NC(=O)c2nnn(Cc3cccc(Br)c3)c2N)c1 | inactive: -28.2% | – |
| CCCCC(=O)N1CC(=O)Nc2ccc(F)cc2C1c1ccc(F)cc1 (stereo unspecified) | inactive: -18.7% | – |
| CCn1c(CNC(=O)C23CC4CC(CC(C4)C2)C3)nnc1SCC(=O)Nc1ccc(C)cc1 | inactive: -32% | – |
| Cc1ccc(S(=O)Cc2ccc(C(=O)NCc3ccc(OC(C)C)cc3)o2)cc1 (stereo unspecified) | inactive: -18.9% | – |
| Cc1nc2c3cccnc3nn2c(C)c1CCC(=O)NCc1ccccc1Cl | inactive: -15.2% | – |
| Cc1ccc2c(Sc3ccccc3)c(C(=O)NCc3ccccc3F)[nH]c2c1 | inactive: 16.5% | – |
| CCOc1ccccc1NC(=O)CSc1nc2ccccc2nc1Cc1ccc(C)cc1 | inactive: -27.2% | – |
| CCOC(=O)[C@H](CCc1ccccc1)N[C@H]1CCc2ccccc2N(CC(=O)O)C1=O | inactive | – |

| SMILES | activity change, negative = inhibition | Potency |
| --- | --- | --- |
| CC(=O)c1ccc(NC(=O)c2sc(-n3nc(C)c(CCC(C)C)c3C)nc2C)cc1 | inactive: -14.8% | – |
| CC(=O)Nc1ccc(NC(=O)CCc2c(C)nc3c(c(C)nn3-c3ccc(C)cc3)c2C)cc1 | inactive: -7.29% | – |
| CC(=O)Nc1ccccc1-c1nc2ccccc2n(C(C)C(=O)Nc2cc(Cl)ccc2C)c1=O (stereo unspecified) | inactive: -8.77% | – |
| CCN(CC)S(=O)(=O)c1nnc(NC(=O)COc2ccc(C)cc2)s1 | inactive: -17.4% | – |
| Cc1ccc(C)c(NC(=O)CSc2nnc(CNC(=O)c3ccccc3)n2-c2ccccc2)c1 | inactive: -12.7% | – |
| CCOc1ccc(NC(=O)c2ccc(CN3C(=O)C(C)=C(c4ccc(C)cc4)S3(=O)=O)cc2)cc1 | inactive: 7.63% | – |
| CCC(=O)Nc1ccccc1-c1nc2ccccc2n(Cc2cccc(Br)c2)c1=O | inactive: -0.229% | – |
| Cn1c(=O)c2sccc2n2c(CCCC(=O)Nc3ccc(Cl)cc3)nnc12 | inactive: -1.46% | – |
| CC(C)n1c(/C=C/[C@@H](O)C[C@@H](O)CC(=O)O)c(-c2ccc(F)cc2)c2ccccc21 | inactive: 8.13% | – |
| COc1ccc(CN2CCCN(CC(=O)Nc3cc(C)ccc3C)S2(=O)=O)cc1 | inactive: -21.5% | – |
| CCOC(=O)c1c(C)oc2nc(C)nc(Nc3cc(C)cc(C)c3)c12 | inactive: 4.5% | – |
| COc1ccc(-c2cc(OC(=O)c3ccccc3C)c3c(C)oc(C)c3c(=O)c2)cc1 | inactive: 28.2% | – |
| O=C(CSc1nc2ccccc2n1Cc1ccc(F)cc1)N1CCN(c2ccc(F)cc2)CC1 | inactive: -0.386% | – |
| Cc1csc2nc(COC(=O)c3ccc(F)cc3)cc(=O)n12 | inactive: -23.6% | – |
| Cc1cccc(N(CC(=O)NCc2ccccc2)S(C)(=O)=O)c1C | inactive: -12.4% | – |
| Cc1ccc(C)c(NC(=O)Cn2cnc3c(oc4ccccc43)c2=O)c1 | inactive: -7% | – |
| Cc1nnc(N2CCC(C(=O)NCCc3ccccc3)CC2)c2nn(-c3ccccc3)c(C)c12 | inactive: -20.1% | – |
| CCc1ccc(-c2nc(CN3CCC(C(=O)NCCc4ccc(C)cc4)CC3)c(C)o2)cc1 | inactive: -1.36% | – |
| COc1ccc(NC(=O)C(c2ccccc2)N2Cc3ccccc3C2=O)cc1 (stereo unspecified) | inactive: -24.7% | – |

Source: PubChem BioAssay AID1508623 (National Center for Advancing Translational Sciences (NCATS), 2021)
